{
  "source": "PubChem BioAssay AID624296",
  "about": "(National Center for Advancing Translational Sciences (NCATS), 2012)",
  "note": "Among all 350,000 compounds or so, about 9,900 (2.8%) were called active. The inconclusive results got no clear call from the source; some entries with a clear call stand among them for comparison. The call rests on the fitted dose curve; in most records, active means well fitted activation curve with a large enough effect; inconclusive means small, poorly fitted or top-dose-only effect; inactive means no such curve, though single readings can be large or run the other way. Potencies of inconclusive entries are left out as doubtful fits. Potency means the concentration at half of the fitted maximal effect; tags describe the fitted curve by direction and shape.",
  "data": [
    {"test": "A quantitative high throughput screen for small molecules that induce DNA re-replication in MCF 10a normal breast cells; further: nearly all actives have a fitted effect of over 50% in size; on activity, positive = re-replication: % of control where 0% means no effect.", "conditions": "MCF 10A DNA re-replication, Hoechst nuclear intensity, 48 h; activity, positive = re-replication: at 46.1 µM (top of the series)", "values": [
      {"smiles": "NS(=O)(=O)c1ccc(Sc2ccccn2)c([N+](=O)[O-])c1", "activity, positive = re-replication": "inactive: -6.11%"},
      {"smiles": "C#CCOc1ccccc1C(N)=O", "activity, positive = re-replication": "inactive: 0.637%"},
      {"smiles": "Cc1occc1-c1nnc(SCC(=O)Nc2ccccc2N2CCCCC2)n1C", "activity, positive = re-replication": "inactive: 9.09%"},
      {"smiles": "CC12CCC(C(=O)N(c3nccs3)C1=O)C2(C)C", "note": "(stereo not drawn)", "activity, positive = re-replication": "inactive: -0.623%"},
      {"smiles": "CCC(C(=O)NC1CCCC1)n1c2ccccc2c2nc(=O)cc(C)n21", "note": "(stereo not drawn)", "activity, positive = re-replication": "inactive: -16.6%"},
      {"smiles": "COC(=O)c1cc(Cl)c(NC(=O)/C=C/c2ccc(OC)c(OC)c2)cc1OC", "Potency": "inconclusive [activator, single point]"},
      {"smiles": "O=C(NN1C(=O)c2ccccc2NC1c1ccc([N+](=O)[O-])o1)c1ccc([N+](=O)[O-])cc1", "note": "(stereo not drawn)", "Potency": "inconclusive [activator, full curve]"},
      {"smiles": "O=C(NCc1ccco1)/C(=C\\c1ccccc1)NC(=O)c1ccccc1", "Potency": "inconclusive [activator, single point]"},
      {"smiles": "C/C(=N\\NC(=S)Nc1ccc(C)cc1)c1cc2ccccc2o1", "Potency": "active: 13 µM"},
      {"smiles": "CCOCCCNC(=O)CCC(=O)NNc1nc2ccccc2c2nc(-c3ccccc3)nn12", "activity, positive = re-replication": "inactive: -13.7%"},
      {"smiles": "COc1ccc(-c2oc3ncnc(NCCCN4CCOCC4)c3c2-c2ccc(OC)cc2)cc1", "Potency": "inconclusive [activator, single point]"},
      {"smiles": "CC1CCCN(S(=O)(=O)c2ccc3oc(=O)ccc3c2)C1", "note": "(stereo not drawn)", "activity, positive = re-replication": "inactive: 0.601%"},
      {"smiles": "Cc1ccc(CSCCC(=O)NCCC2=CCCCC2)cc1", "Potency": "inconclusive [activator, partial curve, poor fit]"},
      {"smiles": "CCCC(=O)NC(=S)Nc1ccccc1C(F)(F)F", "activity, positive = re-replication": "inactive: -0.933%"},
      {"smiles": "O=C(COC(=O)c1ccccc1)NC1CCCC1", "activity, positive = re-replication": "inactive: -1.68%"},
      {"smiles": "N#C/C(=C(/O)COC(=O)c1ccccc1O)c1nc2ccccc2s1", "Potency": "inconclusive [activator, full curve]"},
      {"smiles": "COc1ccccc1CNC(=O)Nc1cccs1", "Potency": "inconclusive [activator, partial curve, poor fit]"},
      {"smiles": "C=CC[n+]1c(/C=C/c2ccc(OC(C)=O)c(OC)c2)ccc2ccccc21", "activity, positive = re-replication": "inactive: -8.23%"},
      {"smiles": "O=[N+]([O-])c1cc(C(F)(F)F)cc([N+](=O)[O-])c1Sc1n[nH]c(C(F)(F)F)n1", "Potency": "inconclusive [activator, single point]"},
      {"smiles": "O=C(CCCN1CCOCC1)c1ccc2c(c1)OCCO2", "Potency": "inconclusive [activator, single point]"},
      {"smiles": "CCCN1Cc2cccc(C(=O)NC(CC(=O)OCC)c3ccc(OCC)c(OC)c3)c2C1=O", "note": "(stereo not drawn)", "Potency": "inconclusive [activator, single point]"},
      {"smiles": "C[C@H](CO)N1C[C@H](C)[C@@H](CN(C)C(=O)Nc2ccc(C(F)(F)F)cc2)Oc2c(NS(=O)(=O)c3ccccc3)cccc2C1=O", "activity, positive = re-replication": "inactive: 12.7%"},
      {"smiles": "O=C(NN=Cc1c(F)cccc1F)c1ccccc1NS(=O)(=O)c1cccs1", "Potency": "inconclusive [activator, single point]"},
      {"smiles": "O=C(O)CCCCCCCCCCP(=O)(c1ccccc1)c1ccccc1", "activity, positive = re-replication": "inactive: -9.46%"},
      {"smiles": "C=CCn1c(=O)/c(=C/c2ccc(Cl)cc2)s/c1=C(\\C#N)c1nnc2n1CCCCC2", "Potency": "inconclusive [activator, single point]"},
      {"smiles": "COc1ccc(C2CC(C)(c3ccc(OC)cc3)Nc3ccccc3N2)cc1", "note": "(stereo not drawn)", "Potency": "inconclusive [activator, single point]"},
      {"smiles": "O=C(Nc1ccc(F)cc1)C1CCCN(c2cnccn2)C1", "note": "(stereo not drawn)", "Potency": "inconclusive [activator, partial curve, poor fit]"},
      {"smiles": "COc1ccc(C2C(Oc3ccccc3)C(=O)N2c2cc(C)ccc2C)cc1OC", "note": "(stereo not drawn)", "activity, positive = re-replication": "inactive: 13.3%"},
      {"smiles": "COC(=O)[C@H]1[C@H]2C[C@@H]3c4[nH]c5ccccc5c4CCN3C[C@H]2C[C@@H](OC(=O)c2cc(OC)c(OC)c(OC)c2)[C@@H]1OC", "activity, positive = re-replication": "inactive: -18.6%"},
      {"smiles": "Nc1ccncc1N", "Potency": "inconclusive [activator, full curve, poor fit]"},
      {"smiles": "COc1ccc(C(=O)OCC(=O)NC2CCCCCC2)c(OC)c1", "activity, positive = re-replication": "inactive: 2.25%"},
      {"smiles": "COCc1cc(/C=N\\NC(=O)Cc2ccc(Cl)cc2)ccc1OC", "activity, positive = re-replication": "inactive: 3.89%"},
      {"smiles": "CCn1nc(NC(=O)c2ccncc2)c2cc3ccccc3nc21", "Potency": "inconclusive [activator, partial curve, poor fit]"},
      {"smiles": "CC(=O)c1cccc(N/C=C\\c2nnnn2-c2ccc(F)cc2)c1", "Potency": "inconclusive [activator, partial curve, poor fit]"},
      {"smiles": "C=CCNC(=O)/C(C#N)=C/c1c(C)nn(-c2ccc(Cl)cc2)c1Cl", "Potency": "inconclusive [activator, single point]"},
      {"smiles": "Cc1c(/C=C/C(=O)c2cccs2)cnn1C", "Potency": "active: 20.6 µM"},
      {"smiles": "CN(C)CCCNc1ncnc2c1cnn2-c1ccccc1", "activity, positive = re-replication": "inactive: 4.36%"},
      {"smiles": "Nc1c(Cl)ncnc1N/N=C/c1ccncc1", "activity, positive = re-replication": "inactive: 3.12%"},
      {"smiles": "CCCc1nc(SCC(=O)c2ccccc2)c2c(=O)n(C)c(=O)n(C)c2n1", "activity, positive = re-replication": "inactive: 11.8%"},
      {"smiles": "Cc1ccc(NC(=O)Cc2ccc([N+](=O)[O-])cc2)c(Br)c1", "Potency": "inconclusive [activator, single point]"},
      {"smiles": "Cc1ccc2c(c1)c1c(n2CC(O)Cn2c(C)nc3ccccc32)CCCC1", "note": "(stereo not drawn)", "Potency": "inconclusive [activator, single point]"},
      {"smiles": "COc1ccc(N2CCN(C(=S)Nc3ccccc3)CC2)cc1", "Potency": "inconclusive [activator, single point]"},
      {"smiles": "CC(C)c1ccc(NC(=O)CSc2nc(=O)n(CCCN3CCOCC3)c3c2CCCC3)cc1", "Potency": "inconclusive [activator, single point]"},
      {"smiles": "COc1cc(CNC2CCCCCCC2)c(Br)cc1OCCO", "activity, positive = re-replication": "inactive: 6.83%"},
      {"smiles": "O=C(C[n+]1cc(-c2ccccc2)n2c1CCC2)N1c2ccccc2Sc2ccccc21", "Potency": "inconclusive [activator, single point]"},
      {"smiles": "O=S(=O)(c1ccc(-c2csc(=Nc3ccccc3)n2CCCN2CCOCC2)cc1)N1CCOCC1", "activity, positive = re-replication": "inactive: 0.103%"},
      {"smiles": "O=C(c1cn[nH]c1)N1CCc2c([nH]c3ccccc23)C1c1c(F)cccc1Cl", "note": "(stereo not drawn)", "Potency": "inconclusive [activator, single point]"},
      {"smiles": "O=C(NCc1ccc(F)cc1)c1cccc(S(=O)(=O)N2CCCC2)c1", "activity, positive = re-replication": "inactive: 19.5%"},
      {"smiles": "COc1ccc(C(=O)NC2CCN(C(=S)Nc3ccc(C)c(C)c3)CC2)cc1", "Potency": "inconclusive [activator, single point]"},
      {"smiles": "CC(C)CN(C(=O)COC(=O)c1ccc(Br)cc1)c1c(N)n(Cc2ccccc2)c(=O)[nH]c1=O", "Potency": "inconclusive [activator, single point]"},
      {"smiles": "CCOc1ccc2[nH]c(=O)c(CN(Cc3cccs3)Cc3nnnn3C(C)(C)C)cc2c1", "activity, positive = re-replication": "inactive: 0.293%"},
      {"smiles": "O=C(NCc1cccc(F)c1F)C1CCC(=O)N(C2CC2)C1", "note": "(stereo not drawn)", "activity, positive = re-replication": "inactive: -1.4%"},
      {"smiles": "COc1ccc(-c2nn(-c3ccccc3)cc2C=O)cc1[N+](=O)[O-]", "activity, positive = re-replication": "inactive: 13.2%"},
      {"smiles": "O=C(COC(=O)CC1CC2CCC1C2)Nc1ccc(F)cc1", "note": "(stereo not drawn)", "activity, positive = re-replication": "inactive: -1.53%"},
      {"smiles": "CCCCn1c(SCC(=O)c2ccccc2)nc2c1c(=O)[nH]c(=O)n2C", "Potency": "inconclusive [activator, partial curve, poor fit]"},
      {"smiles": "CCCCN(CC)CCNC(=O)c1cc2c(=O)n(C)c3ccccc3c2s1", "Potency": "inconclusive [activator, partial curve, poor fit]"},
      {"smiles": "O=C(C1CCCO1)N1CCN(c2ccccn2)CC1", "note": "(stereo not drawn)", "activity, positive = re-replication": "inactive: 0.71%"},
      {"smiles": "Cc1cccc(N2CCN(C(=O)C3CCN(S(=O)(=O)c4cccc5nsnc45)CC3)CC2C)c1", "note": "(stereo not drawn)", "Potency": "inconclusive [activator, single point]"},
      {"smiles": "c1cncc(-c2nnc(-c3cccnc3)nn2)c1", "Potency": "inconclusive [activator, single point]"},
      {"smiles": "CCOc1cc(C#N)ccc1OCC(=O)N1CCc2ccccc2C1", "Potency": "inconclusive [activator, partial curve, poor fit]"},
      {"smiles": "CCCn1c(N)c(N(CCOC)C(=O)c2ccc([N+](=O)[O-])cc2Cl)c(=O)[nH]c1=O", "activity, positive = re-replication": "inactive: -5.79%"},
      {"smiles": "Cc1ccc(S(=O)(=O)Nc2ccc(NC(=O)c3c(F)c(F)c(F)c(F)c3F)cc2)cc1", "Potency": "inconclusive [activator, single point]"},
      {"smiles": "CN(C)c1nccc(N(Cc2ccccc2)Cc2ccccc2)c1C#N", "Potency": "inconclusive [activator, single point]"},
      {"smiles": "COc1ccc(Nc2nc(NCc3ccco3)nc(N/N=C/c3ccccc3F)n2)cc1", "activity, positive = re-replication": "inactive: 2.41%"},
      {"smiles": "O=C(NC1CCCc2ccccc21)c1cc(F)cc(F)c1", "note": "(stereo not drawn)", "activity, positive = re-replication": "inactive: 6.06%"},
      {"smiles": "O=C(NCCCN1CCN(Cc2ccccc2)CC1)C1CCN(S(=O)(=O)N2CCCC2)CC1", "Potency": "inconclusive [activator, partial curve, poor fit]"},
      {"smiles": "O=C(Cc1sc(-c2ccccc2Cl)nc1-c1ccccc1)Nc1ccc(F)cc1", "Potency": "inconclusive [activator, partial curve]"},
      {"smiles": "CC[C@]12c3[nH]c4ccc(Cl)cc4c3CCN1C(=O)[C@@H](CC(=O)NCC13CC4CC(CC(C4)C1)C3)C[C@@H]2C(=O)N1CCN(C(=O)C2CC2)CC1", "Potency": "inconclusive [activator, single point]"},
      {"smiles": "CC(=O)c1ccc(N2CCN(C(=O)CCC(=O)c3cccs3)CC2)cc1", "Potency": "inconclusive [activator, partial curve, poor fit]"},
      {"smiles": "CCOc1ccc(-c2cc(N3C(=O)Nc4ccccc4N3O)n[nH]2)cc1", "Potency": "inconclusive [activator, single point]"},
      {"smiles": "Cc1ccc(C(=O)N2CCN(c3ccc(C(F)(F)F)cn3)CC2)o1", "activity, positive = re-replication": "inactive: 0.25%"},
      {"smiles": "CCCCCCC(=O)N1CCC(c2nc3c(nnn3Cc3ccccc3Cl)c(=O)[nH]2)CC1", "activity, positive = re-replication": "inactive: 0.451%"},
      {"smiles": "CCc1cc(-c2n[nH]c(=S)n2CC(C)C)cs1", "Potency": "inconclusive [activator, partial curve, poor fit]"}
    ]}
  ]
}
